Changes are numbered by the printed parent chain. Each block holds one binder with its values, some of them ahead of it.
Legend:
[1] = biological target: T1, Human VEGF (rhVEGF165, R&D Systems 293-VE) (human, UniProt P15692 27-191); test: cell-based or functional assay
T1 sequence (looked up): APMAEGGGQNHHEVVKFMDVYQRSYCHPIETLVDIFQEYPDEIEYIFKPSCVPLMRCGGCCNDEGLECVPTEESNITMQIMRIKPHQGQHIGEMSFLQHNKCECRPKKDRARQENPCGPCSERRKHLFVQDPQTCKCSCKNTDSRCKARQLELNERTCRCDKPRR

[2] = biological target: T1, Human VEGF (rhVEGF165, R&D Systems …); test: BLI (Octet QKe), biotin-hVEGF on streptavidin sensor, fusion protein in solution
Description: The binding affinity between human VEGF receptor fusion protein and human VEGF was detected on ForteBio bio-molecular interaction detector (Octet QKe, Pall) by Biolyayer-Interferometry(BLI). Human VEGF (catalog no. 293-VE-010, R&D SYSTEMS) and NHS-LCLC-biotin (catalog no. 21338, Thermo) were mixed evenly at 1:3 molar ratio, and placed at room temperature for 1 h, then the remaining NHS-LCLC-biotin was removed, giving the final labelled product biotin-hVEGF at 50 μg/ml. 50 μg/ml biotin-hVEGF was loaded on streptavidin sensor. Samples to be tested were formulated to different concentrations (600 nM, 200 nM, 66.7 nm, 22.2 nM, 7.4 nm, 2.46 nM, 0.82 nM, respectively) by sample diluting buffer (PBS, 0.1% BSA, 0.02% Tween-20, 0.003% NaN₃). The sample diluting buffer was served as blank control. Parameters for binding kinetics between hVEGF and receptor fusion protein were detected under kinetics analysis mode.

[3] = biological target: T1, Human VEGF (rhVEGF165, R&D Systems …); test: ELISA, rhVEGF165 coated on plate, detection with anti-human IgG-Fc HRP; sample at Day 0
Description: (§1) Samples (fusion proteins KH02 and KH05) were diluted to 1600 ng/ml according to initial protein concentration. The volume of the 1600 ng/ml sample should be at least above 800 μl. A 4× serial dilution was conducted by adding 600 μl diluting solution to 200 μl sample, and such a diluting operation was repeated in series to obtain 8 different concentration gradients (including 1600 ng/ml).
(§2) The plate was rinsed as described above. Human IgG-Fc antibody HRP 0.5 μl was diluted by 10 ml blocking solution and the mixture was mixed evenly. 100 μl/well diluted test antibody was added to wells, and the plate was incubated at 37° C. for 1 h. 8) Color Development
(§3) 50 μl/well stop solution was added and the reaction was terminated. The microplate was placed under microplate reader to get a readout under 450 nm.

[4] = biological target: T1, Human VEGF (rhVEGF165, R&D Systems …); test: ELISA, rhVEGF165 coated on plate, detection with anti-human IgG-Fc HRP; sample after 5 days at high temperature
Description: as §1, §2, §3

[5] = biological target: T1, Human VEGF (rhVEGF165, R&D Systems …); test: ELISA, rhVEGF165 coated on plate, detection with anti-human IgG-Fc HRP; sample after 10 days at high temperature
Description: as §1, §2, §3

B1: Fusion protein KH03 (Fc fusion)
chain: GRPFVEMYSEIPEIIHMTEGRELVIPCRVTSPNITVTLKKFPLDTLIPDGKRIIWDSRKGFIISNATYKEIGLLTCEATVNGHLYKTNYLTHRQTNTIIDVVLSPSHGIELSVGEKLVLNCTARTELNVGIDFNWEYPSSKHQHKKLVNRDLKTQSGSEMKKFLSTLTIDGVTRSDQGLYTCAASSGLMTKKNSTFVRVHEKPFVAFGSGMESLVEATVGERVRIPAKYLGYPPPEIKWYKNGIPLESNHTIKAGHVLTIMEVSERDTGNYTVILTNPISKEKQSHVVSLPVYVPPGPG[omitted - human IgG1 Fc]
notes: also called VEGF receptor fusion protein; plasmid/clone 812
EC50 (nM), inhibition of VEGF-stimulated proliferation of HUVEC cells (CCK8) [1]: 2.11 nM
Kd [2]: 1.17 nM
koff [2]: 0.000101 s⁻¹
kon [2]: 86700 M⁻¹ s⁻¹

B2: Fusion protein KH01 (Fc fusion)
chain: B1 chain with P291V
notes: also called VEGF receptor fusion protein; plasmid/clone 610
EC50 (nM), inhibition of VEGF-stimulated proliferation of HUVEC cells (CCK8) [1]: 1.93 nM
koff [2]: 3.53e-05 s⁻¹
kon [2]: 69100 M⁻¹ s⁻¹

Second part, the binder after the results:

EC50 (nM), inhibition of VEGF-stimulated proliferation of HUVEC cells (CCK8) [1]: 1.26 nM
Kd [2]: 0.33 nM
koff [2]: 1.7e-05 s⁻¹
kon [2]: 51600 M⁻¹ s⁻¹
Kd [3]: 0.0225 nM
Kd [4]: 0.0464 nM
Kd [5]: 0.0705 nM
B3: Fusion protein KH02 (Fc fusion)
chain: B1 chain with P291R
notes: also called VEGF receptor fusion protein; plasmid/clone 711

EC50 (nM), inhibition of VEGF-stimulated proliferation of HUVEC cells (CCK8) [1]: 1.43 nM
Kd [2]: 0.35 nM
koff [2]: 7.27e-05 s⁻¹
kon [2]: 206000 M⁻¹ s⁻¹
B4: Fusion protein KH04 (Fc fusion)
chain: B1 chain with L290R
notes: also called VEGF receptor fusion protein; plasmid/clone 915
